PubChem BioAssay AID1345083 (National Center for Advancing Translational Sciences (NCATS), 2018)
In all, about 94,000 compounds went through this assay and about 6,200 (6.6%) were called active. The inconclusive results got no clear call from the source; some entries with a clear call stand among them for comparison. Calls come from the whole dose curve; as a rule, active = well fitted inhibition curve with a large enough effect; inconclusive = small, poorly fitted or top-dose-only effect; inactive = flat fitted curve, though single readings scatter. A potency beside an inconclusive call is a rough fit, not a confirmed value.

Assay: Cytotoxic Profiling in HEK 293 Cell Line of Diverse Libraries Using Quantitative High-Throughput Screening; note: nearly all actives have a fitted effect of over 60% in size
Conditions: HEK 293 viability, ATP luminescence (CellTiter-Glo), 48-72 h; activity change, negative = cytotoxicity: at 115 µM (top of the series) unless noted; series mostly up to 115 µM
Outline: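 Viability of HEK 293 cells, plated at 250 cells/well, was judged by cellular ATP after compound treatment for 48 or 72 hr. Luminescence was imaged 10 min after CellTiter-Glo addition at room temperature.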
% is set by controls: 0 for no effect and ±100 for the full control effect; potency is the fitted concentration of half-maximal effect; tags give direction and shape of the fitted curve.

SMILES | activity change, negative = cytotoxicity | Potency | outcome
CCn1ccc(C(=O)N2C[C@@H]3CCCN4CCC[C@@H]([C@H]34)[C@H]2CCCC(=O)NCC2CC2)n1 | inactive: -3.43% |  | 
COc1cccc(-c2cn(C3CCN(C(=O)c4ccc(Cl)cc4)CC3)c(=O)[nH]2)c1 | inactive: -23.2% |  | 
COc1ccc(CC2CCOC3(CCN(C(=O)c4cccc(C#N)c4)CC3)C2)cc1 (stereo not drawn) |  | inconclusive: 56.2 µM [inhibitor, partial curve, poor fit] | 
O=[S+]([O-])(N[C@@H]1[C@@H](c2ccccc2)[C@@H](CO)N2CCCC[C@H]12)c1ccc(Cl)cc1 |  | inconclusive: 63.1 µM [inhibitor, partial curve, poor fit] | 
Cc1ccc(C2(C(=O)N3C[C@@H](CN4CCCCC4)[C@@H](CO)C3)CC2)cc1 |  | inconclusive: 31.6 µM [inhibitor, partial curve, poor fit] | 
CC(C)CCN1CCc2c(n(Cc3cccnc3)n(-c3ccccc3)c2=O)C1 | inactive: 4.31% [at 172 µM] |  | 
Cc1ccc2c(n1)OC(COc1ccccc1)CN(Cc1ccccc1)C2=O (stereo not drawn) |  | inconclusive: 56.2 µM [inhibitor, partial curve, poor fit] | 
Cn1ncc2c(C(=O)N3CCCC3)cc(-c3ccc(Cl)nc3)nc21 | inactive: -4.95% [at 230 µM] |  | 
CN1C(=O)CCc2cc(NC(=O)Cc3ccc(Cl)cc3)ccc21 |  | inconclusive: 89.1 µM [inhibitor, single point] | 
Cc1noc(-c2cn(C3CCN(C(=O)c4ccc(C#N)cc4)CC3)nn2)n1 | inactive: -1.78% |  | 
COc1ccc(NC(=O)Cn2c(=O)n(-c3ccccc3)c(=O)c3c2cc(C)n3C)cc1 |  | inconclusive: 50.1 µM [inhibitor, partial curve, poor fit] | 
Cn1ccc(NC(=O)C2(C)CN(Cc3ccccc3)Cc3ccc(N4CCOCC4)nc32)n1 (stereo not drawn) |  | inconclusive: 79.4 µM [inhibitor, partial curve] | 
O=C(NCc1ccc(Cl)cc1)c1ccc2cncn2c1 |  | inconclusive: 100 µM [inhibitor, partial curve] | 
COC1C(=O)N(c2cccc(F)c2)C12CCN(C(=O)C(C)C)CC2 (stereo not drawn) |  | inconclusive: 50.1 µM [inhibitor, partial curve, poor fit] | 
O=C(NCCc1cccnc1)c1cccc2c1CCN2C(=O)Nc1ccc(F)cc1 |  | active: 44.7 µM | 
COc1ccccc1Nc1ccnc(N2CCCC(C(=O)NCc3ccc(F)c(F)c3)C2)n1 (stereo not drawn) |  | inconclusive: 44.7 µM [inhibitor, partial curve, poor fit] | 
CC(C)c1nc2c(c(-c3ccc(O)cc3)n1)CN(Cc1ccccc1)CC2 |  | inconclusive: 79.4 µM [inhibitor, partial curve] | 
COc1ccccc1-c1ccc(C(=O)N2CCC(C(=O)N3CCC(Cc4ccccc4)CC3)CC2)cc1 |  | inconclusive: 11.2 µM [inhibitor, full curve, poor fit] | 
CCc1nc2c(c(-c3ccc(Cl)cc3)n1)CCN([S+](=O)([O-])c1cccc(C(F)(F)F)c1)CC2 |  | inconclusive: 44.7 µM [inhibitor, partial curve, poor fit] | 

SMILES | activity change, negative = cytotoxicity | Potency | outcome
CC1(C(=O)NC2CC2)CCCc2cnc(Nc3ccccc3)nc21 (stereo not drawn) |  | inconclusive: 89.1 µM [inhibitor, partial curve] | 
O=C(C1CCC1)N1CCC(n2cc(-c3nc(-c4ccccc4)no3)nn2)CC1 |  | inconclusive: 79.4 µM [inhibitor, partial curve, poor fit] | 
CC1=C[C@@H](CNCc2ccncc2)[C@H](C(C)C)C[C@H]1Cc1nnc(C)o1 |  | inconclusive: 100 µM [inhibitor, partial curve, poor fit] | 
O=C1NCCCCCCN(C(=O)c2cccs2)[C@H]2C[C@H](c3nc(Cc4ccccc4)no3)C[C@@H]12 |  | inconclusive: 31.6 µM [inhibitor, full curve, poor fit] | 
Cc1cccc(OCC(=O)N2CCCC(c3noc(COc4ccccc4F)n3)C2)c1 (stereo not drawn) |  | inconclusive: 22.4 µM [inhibitor, full curve, poor fit] | 
CN(C)C[C@@H]1CN(Cc2ccccc2)C[C@H]1NS(=O)(=O)c1cccnc1 |  |  | inactive
CCCCn1c(=O)c(C(=O)NCc2ccccc2)nc2cccnc21 |  | inconclusive: 89.1 µM [inhibitor, single point] | 
Cc1ccc(S(=O)(=O)N2CCCC(Cn3cnc4cccnc43)C2)cc1F (stereo not drawn) | inactive: -28.2% |  | 
COc1cccc(NC(=O)O[C@@H]2CC[C@]3(C)[C@H](CC[C@H]4OC(=O)C[C@H]43)[C@]2(C)CO)c1 |  | inconclusive: 126 µM [inhibitor, single point] | 
CC(NC(=O)c1cc2n(n1)CC(c1ccc(Cl)cc1)OC2)c1ccccc1 (stereo not drawn) |  | inconclusive: 79.4 µM [inhibitor, partial curve] | 
Cc1ccc2c(C(=O)NCc3cccc(Cl)c3)cc(NC(=O)C(C)C)cc2n1 |  | inconclusive: 44.7 µM [inhibitor, partial curve, poor fit] | 
CN(C)CCN(C)C(=O)c1ccc2c(c1)NC(C)(CCCCc1ccccc1)CO2 (stereo not drawn) |  | active: 100 µM | 
COc1ccc(-c2cc3nc4c(c(=O)n3[nH]2)CN(C(=O)Cc2ccc(NC(C)=O)cc2)CC4)cc1 |  | inconclusive: 44.7 µM [inhibitor, partial curve, poor fit] | 
Cc1ccccc1-c1nc(N2CCOCC2)cc2c1CN(Cc1cnn(C)c1)C2=O |  | inconclusive: 112 µM [inhibitor, partial curve, poor fit] | 
Cc1ccc(C(=O)N2CCN(c3cc(-c4ccccc4)[nH]n3)CC2)cc1 |  | inconclusive: 56.2 µM [inhibitor, partial curve, poor fit] | 
CC(C)C(=O)N1CCC2(CC1)CC(N(Cc1ccc(F)cc1)C1CC1)CCO2 (stereo not drawn) |  | inconclusive: 50.1 µM [inhibitor, partial curve, poor fit] | 
O=C(COc1ccccc1)N1CCC2(CC1)NC(=O)N(c1cccc(F)c1)N2 |  | inconclusive: 15.8 µM [inhibitor, full curve] | 
Cc1ncccc1C(=O)N1CCC(Oc2cnc3c(ccn3-c3cncnc3)c2)CC1 | inactive: -12.6% [at 172 µM] |  | 
CCCNC(=O)c1cccc2c1CCN2S(=O)(=O)c1cccc(C)c1 |  | inconclusive: 39.8 µM [inhibitor, partial curve, poor fit] | 
